# Test results: PMC10726135
# Some of the results follow. At the low end of the ranking the order means little. Measured with an extract: partners may take part in the binding.
# Target: T1, HNF4alpha2 (COS-7 nuclear extract) (UniProt P41235)
# T1 sequence: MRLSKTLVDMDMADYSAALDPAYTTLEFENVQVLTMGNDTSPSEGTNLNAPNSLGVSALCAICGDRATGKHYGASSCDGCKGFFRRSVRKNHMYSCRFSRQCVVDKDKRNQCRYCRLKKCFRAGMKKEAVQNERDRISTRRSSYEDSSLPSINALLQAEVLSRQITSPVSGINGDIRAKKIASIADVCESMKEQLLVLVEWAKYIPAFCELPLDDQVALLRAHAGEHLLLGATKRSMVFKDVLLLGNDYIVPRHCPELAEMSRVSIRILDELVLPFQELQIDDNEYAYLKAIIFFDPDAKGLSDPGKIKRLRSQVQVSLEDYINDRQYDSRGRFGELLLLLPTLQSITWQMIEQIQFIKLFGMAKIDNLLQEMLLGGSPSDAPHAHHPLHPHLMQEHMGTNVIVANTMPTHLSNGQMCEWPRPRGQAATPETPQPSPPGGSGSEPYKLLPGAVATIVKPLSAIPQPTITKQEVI
# Assay: protein-binding microarray
# Details: COS-7 nuclear extract on double-stranded Agilent 4x180k PBM; binding buffer, salt, pH and temperature not given; high values mean tight binding; double strand, one strand shown; sequences stand for … in …GCCTAGGGAGATTAGAGTATCGGTCGA
row,Sequence,binding signal (log2 normalized intensity)
1,GGATGGGGACAAAGGTCAAGAAAGCTTTTG,5.69
2,TCTAGGAACCTTTCTCCATACCTCTTGCGT,-0.051
3,TTAAAGAATTTTTCCCCTAGTTACAACTGT,1.61
4,GGATGAAGGCTGCTGCCTGAAAGGCCAAGC,-1.2
5,ATCAGCAAACACAGATAGCATAATCAAAGA,-1.18
6,TGTTGGGGAACTTTGCCCGGATTCCAGCAA,0.995
7,TTCAAAGGTAGGGCCTACCTGCCTGAGCTA,-1.24
8,ATTCCACCCTCATTTGCTTGACCCGGGTAC,2.6
9,GGGCATGAAGTCAAAGGAGGCATTCCTGCA,-1.13
10,AACTGTGTAATAAGGAGTTGTGTGATAAGG,1.26
11,GGGCTGAGCCCACAGTCCAGTACCATTTCC,-1.07
12,GCCCCAGTGATGACAGCAAGATAATGTCAA,1.18
13,GTTTGCAAGCCCAAAGCCCCCAGAGGTTCT,2.89
14,CTGCAGGTCTCTAAATGGTAGGATTGTTTG,1.52
15,GACGACTTACTTTTATCAGGTAAAGATATG,1.32
16,AGGTAGAGGGACACTGATAACACTGATAAC,-1.19
17,GTTGCAACTTTGACTATAGCGTCTCCTGGC,-0.321
18,CTAACGTATGGACTTTCTGATGTCAGAAAA,1.53
19,AGCTCTGAACTAACAATTCTTTCTGATAAG,-1.14
20,ACAAGGAAAAATGACCATCTCGTCAAGGTG,-1.2
21,ATCCTCAAGAAACACAGAACTATCAAACAT,-1.06
22,ACATAAATGTGCCCAGATAAGAACTGCAAG,-1.19
23,GGAGTAGGCTTTAGATAAGGTATGTGGGAG,0.395
24,GAAATGGATTTTTTGGGTAAAGTCCAGGCA,2.36
25,AGATAAGGAGGAGACAGACTTATCGGGTAG,-1.08

row,Sequence,binding signal (log2 normalized intensity)
1,ACTTTCTTGTTTACTCACCTGATTCAATGT,1.48
2,CGCGCCGGGCACTGATAACGCCCGCCTAAC,-0.947
3,GCCATTGTTCATACTGCAGCTCTGCGTCTT,-0.62
4,TTGGGCTAGCCGCTCCTCCCACGTCGCTGC,-1.03
5,TGAAAATACAAACAAATTGTGTGCAACAGG,-0.666
6,TTAAAGGGCAGAAGAAGGGATTTAGATTAG,-0.58
7,CCCAGCAGGCAGACTGGCTCCGCTGCTGCA,-1.08
8,AATCTTTCAGGAATCTCAGGAGTGATGCCA,-1.05
9,AGAGGAAGATCTTTTTGATGACTTTGTAGG,1.03
10,AATGTAGCCGGCTCAAAATAGGCAAGACTG,-0.587
11,ATTGCCATCTGCAAGAGAGAATAGATAGTG,-0.971
12,TGCGGTAGGCATTGAGGCAGCCAGCGCAGG,-1.06
13,TCAAAGACTCAGATGAGTTTCTTCACTGAC,-1.13
14,CAGTGAGGATGTGTGCTCGAGGTGGACTTT,6.58
15,GGTAAGCCACTGAACTTTCACTGCCTATCT,-1.06
16,TGTTCCTCCAGACACGGGGATAACACCTGC,-0.974
17,ACATTTATTGTGAGATTACGTAAGTGAAAG,1.96
18,TCCAAAGTTCAAACTCTGAAAGCACTAAGT,1.04
19,AGTGGCACTCTCTGGGTTAAACGTGCAGCA,-0.85
20,GCACAATCAGCAAACACAGATAGCATAATC,-1.02
21,CCTAGCACTTCCCGAGTGAGGCAATGCCTC,-1.04
22,TTCCATGTTTGTCTTTGCATTGCTCAATTT,1.98
23,GCCATTGACGGTATGTGAATGCCTGGGCAT,-0.879
24,GCTTTCTTCCAAGGCTGCAAGCAAACCTGC,-1.16
25,TCATGAGCATGCTTCCCAAATGGAGTGCCC,0.48

row,Sequence,binding signal (log2 normalized intensity)
1,CAACTTCCCCAACCCTTGCACTGCTGGTTT,1.58
2,CACCAGCATGGTGATGCTAGCTACTACATG,-1.3
3,ATGACCTCTTTTAGTAACTGACTTTAACTT,1.5
4,CTGAAGTCAATGTCAGCTAGAGGCCCTGCA,-1.2
5,GAGTTTCTGCAGTTCTGGGCCAAAGGTCAT,6.45
6,ACAATAGGAATTCAACCAATGTGGAGCTGC,-1.15
7,GCTCCTTTGAGCACTGCTGACTGTTTGCTT,1.53
8,CTCCCTAGAGCAGCAGTAGGCTCTCGGGCC,-1.02
9,CCAGGTGTGCAGAGAGCAAACGAACCGGCA,-1.19
10,CCCCGGGAGCAGCATGGCCCTTTGCAGCCC,-1.23
11,GGGCAAGCCCACTCTCTGAGTCTGATAAGG,-1.17
12,TAAATATGTTCCAAAGTTCAACCAGATGAT,3.04
13,TTTTTGAGATGGAATCTTGCCCTGTCGCCC,2.19
14,CAAGGGTTCAGGGCTCAGTTGACATGATAC,1.58
15,GCAGGAGCCACCTGTCACTCAATGCAGCAG,-1.22
16,CAATGCCCCAGAAAGCCAGCAGGGGCTGCT,-0.844
17,CTGGGACCCACCCACCTATGTCCTTATCCT,1.88
18,AGGTAGAGAGCTGTCTGCTGAGGATGTGGC,-0.345
19,GCTGTGATGTTTGCCCATGATCATATGGAC,2.07
20,CCCTTGTCTTCCTCAAATTACAAAAGGAGT,1.46
21,CCACTAGCAACAGCTGCAGTGAAATTCTGG,-1.11
22,CTTGGCTAACAAAGCTCAGGGCAAAGACTC,-1.22
23,TCAGTTTCATTGCACTTTGCCCTCTCTTCA,6.57
24,GCCAACAAACTCAATCCTGGCCTCTGAGGT,-1.15
25,AGTCAACATGTCATTGGCAGAAGGTGGAAC,1.67

row,Sequence,binding signal (log2 normalized intensity)
1,CCCCACATTCCAACACAGGGTCAATGTCCC,2.71
2,CTTTTTGGCCTTTGGCTGTTCGATGTATAC,2.13
3,TTTTTTGCTTAGATGGTTTAAAGAATTCTG,1.46
4,TTGATGTGAGGGTAGGAGCCTAGCTTCCTT,-1.1
5,TTTACTTATCATAAGTCAGCCTGGCTGAAG,1.43
6,TTCTTCCAGTTGTGTGCACAAGAGGGTGGG,0.619
7,GTCAAAAGGTGTATGTGGACTTTCAACTGC,5.14
8,CGTAATACAAAGGCAGCCATTGACGGTATG,-0.671
9,TTGTACACATTCCTTTGGATCATGTGTCTG,1.67
10,TGGGTTGAGGCTAAGAGGTGAACACATTCC,-0.453
11,TGGTTAGTTCCAAAGGACAAATCTCACTGA,1.11
12,ATTCAACTTTGACTTCCATTGTGTTGCAGA,0.927
13,ACAGCCTTGTTTACAACGCTGTTGTCTGTG,0.685
14,CAGAGCTAATGTTCAAATCCAGACACTTTG,0.377
15,TAGGGGCCGCATTGATGTTAGAATACAAGT,-0.0126
16,CCAGCGGGTCATTAATTCCCAGGAATTGGC,-1.1
17,GCTTCACAGCCCTCCAACTATGCTAAGAAT,-0.516
18,AAGTCTGAGATGAAGAGGCCAGGGGCACTC,-1.09
19,AGATAAATGGTGTAGAGGCCAGAGGTCGTG,1.93
20,AATGTGCCCTTTGACCTCTCTCTCCTAACT,6.48
21,AAACACACTTGCTCTAATCCTTTAAAAAAA,-0.966
22,AGCTGAAGTTTGCAAACAGTAAAGAACAAA,-0.878
23,GCCTTGGAAAACCCGGCGCGGACATAAAAT,-1.06
24,TGCGTCCCCAGGTGAACTCAGTCCTTTCAG,0.278
25,TCATTTTCTTATCTCACACAGTACTTTGTA,2.03

row,Sequence,binding signal (log2 normalized intensity)
1,GAGGCCTCATTGGCCAGTATCCGCCTTCAC,-1.02
2,TCCCACTTCAGCCTCCCGAGTAGTTGGGTC,1.75
3,AAAAAACCTGTTCAGCCAGATTCTCTCACT,-1.08
4,CTTTGCCCGGATTCCAGCAACTTCCTCTTG,-1.18
5,GCCATGGACTGCTGACCTTTGAACCCTGAG,10.1
6,TCCACAGATAAGGAGGAGACAGACTTATCG,-1.15
7,GCAAGACTGCATTCCCTAGATGTCGCAGTA,-1.2
8,CACCACTAGGAAACTGACCTTTGCTCATGA,6.73
9,AGGAAATCAAAAACCATTTGACAATTTACA,-0.703
10,GAGACATGTGGCCTTTGGTACAGGGCCCAG,1.42
11,GGTCAGAGTAAAGCTCCAGTCTCCTCCCTG,-0.958
12,CACCAGATAGCAAGGAGACATCGCTCCTCC,-1.25
13,CTCCAACTGCTCCTCTTCAACTGATTCTTG,0.359
14,AGAAAGAAAAAGTACACACCTGCAACCTAT,-1.11
15,TTTTCATCTGATCAGTGCCCATCTGGTGGT,1.51
16,AGCTTCTCTTTCTAGGTCACCACCTTTTTT,1.37
17,CCGGGGAGATACTGTAAACCAGCAGTATCT,-1.1
18,AACTGGACTAGACAGGCTTGTCGAGGACAG,-1.09
19,GTTAAGTGAGTGGACTTTGGTCCTGGTCAG,6.52
20,GGAGCAGCATGGCCCTTTGCAGCCCGAGCT,-1.07
21,CAAAGGTCAGATGACAGAATTGGTCCTGGA,2.21
22,ACCTACACCTATGTGGTCAAAACTTTGTTT,0.46
23,TTTATCAGTGATTTCTCTTCCATCTCAGCT,-1.14
24,AAAGCTCACAGATGTGGAATGAAACCAGTT,-0.573
25,CGGAGCGCCGAGCAGGCACCCCGGGAGCGC,-1.2

row,Sequence,binding signal (log2 normalized intensity)
1,TTCCTCAACTCTAGGAGCATGTCAAAAGCT,-1.06
2,AGGGCAGCATAATCACATACAGGCCAGCTG,-1.25
3,GGTCCTGCCATTAAACACCTTATTTGGTCA,1.44
4,TGTTCGCAGACCTGCCAAAGTGTACCCTGT,2.8
5,TAATCATATCTGCCTCAGTAGTAGTGAAAA,1.48
6,CCAAAAAGCATAACTGTATAACCTGGAACT,-1.13
7,AGAATGAGCCTCTTCTTTAATAAGAAAAGG,-1.09
8,AAATTCCTAGCCCTCTTTCAAAGACAAATA,0.281
9,AGTAATCAATGGTTGCACTCTGGTGCCCTC,2.25
10,CATTGCCCCCTATGTAAAGGCCTTTGAAGC,3.5
11,GTCTGCACTCCAGGAAAGACGAGTGCGCTT,-1.09
12,GCGTGGCCCAGCATGCCCCGCGCCGCGTCC,0.859
13,AGAGAGTTCTATGGGATGACCTTTGAGCAA,6.93
14,GGCAGATATGAAAGAGCCATGGACTGCTGA,-0.302
15,TGAGAAGGGCTAATATTTGCAAATGACTTT,-1.05
16,TGAAATCTACAGGACAGCCAGGCAGTCGGG,-1.15
17,GCCTGCGGGGTCAGGCCGTGGTGTATGATG,1.73
18,CTGCCTTGGAGGCACTCCCAGGATAATGGA,-0.971
19,AATGCAGCAGCATTGGACCCTCCCAGCCAA,3.94
20,GAAAAAGCTGACGCCCCACCCCCTCCACCC,6.44
